Test results as given in article PMC4445002, “Efficient inhibition of tumor angiogenesis and growth by a synthetic peptide blocking S100A4-methionine aminopeptidase 2 interaction” (Molecular Therapy. Methods & Clinical Development, 2015).
Results are given in words; binding and its absence hold for the method and conditions named. For part of these data: Binding seen in cells or lysates may run through a third protein. Some binding calls cover weakened binding; strength is not graded here.

Sequences of proteins named here, by UniProt entry; tags and fusion partners are left off. A change or cut given only in a name is not applied to a line headed by its entry.
UniProt P07091: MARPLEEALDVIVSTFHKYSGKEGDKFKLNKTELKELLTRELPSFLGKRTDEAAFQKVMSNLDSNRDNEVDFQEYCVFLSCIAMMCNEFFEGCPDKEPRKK
UniProt O08663: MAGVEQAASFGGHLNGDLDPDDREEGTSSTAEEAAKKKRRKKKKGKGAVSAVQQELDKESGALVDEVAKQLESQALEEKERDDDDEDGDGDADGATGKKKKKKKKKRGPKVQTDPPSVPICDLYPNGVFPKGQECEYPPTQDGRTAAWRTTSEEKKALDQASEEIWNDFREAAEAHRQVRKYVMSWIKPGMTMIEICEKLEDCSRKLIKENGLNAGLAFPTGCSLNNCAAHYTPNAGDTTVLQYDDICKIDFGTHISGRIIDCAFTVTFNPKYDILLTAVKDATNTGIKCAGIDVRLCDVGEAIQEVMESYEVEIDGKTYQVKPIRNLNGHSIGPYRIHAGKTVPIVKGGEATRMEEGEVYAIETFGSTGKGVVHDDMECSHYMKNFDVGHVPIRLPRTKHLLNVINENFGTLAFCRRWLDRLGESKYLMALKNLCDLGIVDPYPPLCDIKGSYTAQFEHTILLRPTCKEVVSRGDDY

Assays:
[1] = target: EYFP-S100A4 (UniProt P07091); test: FRET or BRET; acceptor-photobleaching FRET between ECFP and EYFP fusions cotransfected into live HeLa cells, 24 hours after transfection, LSM710 confocal microscope
[2] = target: GST-S100A4 fusion protein (UniProt P07091); test: pull-down; competition in the GST pull-down: synthetic peptide at a 25-fold molar excess of [35S]MetAP2 added to GST/S100A4, 1 mmol/l CaCl2; both purified
[3] = target: GST-S100A4 fusion protein (UniProt P07091); test: SPR; Biacore 3000, CM-5 chip; GST-S100A4 captured by immobilised goat anti-GST antibody (GST on the control cell, subtracted); SBD peptide 1 mmol/l injected in HBS-P (10 mmol/l Hepes pH 7.4, 150 mmol/l NaCl, 0.005% P20) with 1 mmol/l CaCl2, 25 °C, 5 minutes; both purified
[4] = target: GST-S100A4 fusion protein (UniProt P07091); test: condition: only without CaCl2 (SBD peptide 1 mmol/l); SPR; as a1 but running buffer without CaCl2; both purified
[5] = target: GST-S100A4 fusion protein (UniProt P07091); test: pull-down; in vitro GST pull-down: [35S]MetAP2 incubated with GST/S100A4 fusion protein in 1 mmol/l CaCl2; with or without synthetic peptide at a 25-fold molar excess of MetAP2; only the target purified
[6] = target: GST-S100A4 fusion protein (UniProt P07091); test: pull-down; in vitro GST pull-down: [35S]MetAP2 incubated with GST/S100A4 fusion protein in 1 mmol/l EDTA; only the target purified

Q: “ECFP-CBD (from UniProt O08663 192-229) (domain or fragment)” was tested. Which binding [1] did it give?
A: no binding

Q: How did the binding [1] turn out when ECFP-MetAP2 (from UniProt O08663 2-478) was run?
A: binds

Q: How did the binding [1] turn out when “ECFP-NBD (from UniProt O08663 170-208) (domain or fragment)” was run?
A: binds

Q: For “ECFP-SBD (from UniProt O08663 170-229) (domain or fragment)”, which binding [1] is on record?
A: binds

Q: How did the binding [2] turn out when “NBD peptide (N-terminal 39 residues of SBD, MetAP2 170-208) (from UniProt O08663 170-208)” was run?
A: binds

Q: How did the binding [3] turn out when “SBD peptide (S100A4 binding domain of MetAP2, residues 170-229) (from UniProt O08663 170-229)” was run?
A: binds

Q: And the binding [4]?
A: no binding

Q: “[35S]MetAP2 (methionine aminopeptidase 2) (from UniProt O08663 1-478)” was tested. Which binding [5] did it give?
A: binds

Q: What about the binding [6] of the same substance?
A: no binding (condition: with 1 mmol/l EDTA)
